Reference: PubChem BioAssay AID2451 (National Center for Advancing Translational Sciences (NCATS), 2010)
Several values for one entry are separate records, joined by “and”; a condition that tells them apart may be missing. Equal entries are not always repeated. The campaign covered roughly 290,000 compounds. About 2,100 (0.72%) were called active. Inconclusive means that the source gave no clear call. Such entries were picked first, then a sample of the others. The call rests on the fitted dose curve; in most records, active means well fitted inhibition curve with a large enough effect; inconclusive means small, poorly fitted or top-dose-only effect, or effect the other way; inactive means flat fitted curve, though single readings scatter. A potency beside an inconclusive call is a rough fit, not a confirmed value.
Further: nearly all actives have a fitted effect of over 55% in size.
On the % scale 0 is the no-effect control and ±100 the full control effect; potency means the concentration at half of the fitted maximal effect; tags describe the fitted curve by direction and shape.

Each compound was assayed against Fructose-bisphosphate aldolase (Giardia intestinalis (strain ATCC 50803 / WB clone C6)) (UniProt A8B2U2) (assay: qHTS Assay for Inhibitors of Fructose-1,6-bisphosphate Aldolase from Giardia Lamblia). Conditions: purified Giardia FBPA; activity, negative = inhibition: at 59.6 µM (top of the series) unless noted.
Chain of UniProt A8B2U2 (A8B2U2 whole entry, looked up): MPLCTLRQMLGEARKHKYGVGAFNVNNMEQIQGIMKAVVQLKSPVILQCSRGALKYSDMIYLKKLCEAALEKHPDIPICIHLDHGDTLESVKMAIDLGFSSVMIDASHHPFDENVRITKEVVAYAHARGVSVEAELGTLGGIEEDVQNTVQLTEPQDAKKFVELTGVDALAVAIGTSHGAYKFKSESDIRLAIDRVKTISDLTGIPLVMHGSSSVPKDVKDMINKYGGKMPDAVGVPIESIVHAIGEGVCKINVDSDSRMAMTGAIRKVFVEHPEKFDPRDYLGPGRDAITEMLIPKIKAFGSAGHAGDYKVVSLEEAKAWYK
Outline: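 40 nM FBPA preincubated 10 min at RT with compound (up to 57.5 uM final), then substrate plus GAPDH/TPI/NAD/arsenate coupling and diaphorase/resazurin added. Fluorescence read after 20 min at RT, 525/598 nm.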
`CCOC(=O)N1CCN(CC(=O)N2c3ccccc3Sc3ccccc32)CC1` was tested, and the Potency was inconclusive: 28.2 µM [inhibitor, partial curve].
In the case of `O=C1C=C(Nc2ccccc2O)c2ccccc2C1=O`, the Potency is reported as active: 17.7 µM.
For `CCOC(=O)C1=C(O)/C(=C\c2cc(C)n(-c3ccc(F)cc3)c2C)N=C1C`, the Potency was inconclusive: 7.92 µM [inhibitor, partial curve].
In the case of `O=C(O)c1ccc(CSc2nnc(COc3ccccc3)o2)cc1`, the “activity, negative = inhibition” value is reported as inactive: 21.4%.
With `CCOc1ccccc1NC(=O)CSc1nnc(-c2cnccn2)n1CC` the Potency was inconclusive: 17.7 µM [inhibitor, single point].
`Cc1cccc(C)c1NC(=O)Cn1cc(C=O)c2ccccc21` was tested, and the “activity, negative = inhibition” value was inactive: 0.671%.
With `CC1(C)Cc2nc3sc4c(SCC(=O)O)ncnc4c3cc2CO1` the “activity, negative = inhibition” value was inactive: 7.28%.
With `CN(C(=O)c1ccno1)c1nnc(-c2ccccn2)s1` the Potency was inconclusive: 5.61 µM [activator, partial curve].
For `CCCCc1c(C)c(C#N)c2[nH]c3ccccc3n2c1=O`, the Potency was inconclusive: 22.3 µM [inhibitor, partial curve].
With `COc1cc(C(=S)N2CCCCC2)ccc1O` the Potency was inconclusive: 25.1 µM [inhibitor, single point].
For `CCCOc1ccc(C(=O)NCCN2CCOCC2)cc1`, the Potency was inconclusive: 39.8 µM [inhibitor, single point].
With `CCOC(=S)N/C(=N\S(=O)(=O)c1ccccc1)c1ccccc1` the Potency was inconclusive: 7.92 µM [inhibitor, partial curve].
With `S=C(Nc1cccc2ccccc12)NC1CCCCC1` the Potency was inconclusive: 15.8 µM [inhibitor, partial curve].
In the case of `CC(C)(C)N=C1C([N+](=O)[O-])=CC=C2C1=NC1(CCCCC1)N2O`, the Potency is reported as inconclusive: 3.15 µM [inhibitor, full curve].
With `O=C(O)COc1ccc(S(=O)(=O)c2ccc(OCC(=O)O)cc2)cc1` the Potency was inconclusive: 15.8 µM [activator, single point].
In the case of `COC(=O)N/N=C/c1sc(N2CCCCC2)nc1-c1cccs1`, the Potency is reported as inconclusive: 14.1 µM [inhibitor, partial curve].
In the case of `COc1ccc(C2NC(c3ccc(OC)cc3OC)C(C)C(=O)C2C)c(OC)c1` (stereo not drawn), the Potency is reported as inconclusive: 19.9 µM [inhibitor, partial curve].
With `Cc1cc(NCc2ccccc2)c2ccccc2n1` the Potency was inconclusive: 22.4 µM [inhibitor, single point].
With `O=C(CNC1CCCC1)Nc1cc(Cl)ccc1[N+](=O)[O-]` the Potency was inconclusive: 17.7 µM [inhibitor, partial curve].
For `COc1ccc(Cc2n[nH]c(=S)n2N)cc1OC`, the Potency was active: 12.6 µM.
`Cc1cc(C)n(-c2nncn2NC(=O)c2ccc(Cl)cc2O)n1` was tested, and the Potency was inconclusive: 35.4 µM [activator, single point].
In the case of `COc1ccc(/C=N/Nc2ncnc3sc(C)c(C)c23)cc1`, the Potency is reported as inconclusive: 22.3 µM [inhibitor, single point].
In the case of `CSc1cccc(NC(=S)N2CCCN(Cc3ccc(F)cc3)C2)c1`, the Potency is reported as inconclusive: 31.5 µM [inhibitor, single point].
With `CC(=O)N1CCN(c2ccc(NCc3ccc(F)cc3)cc2)CC1` the Potency was inconclusive: 17.7 µM [inhibitor, partial curve].
For `COc1cccc2cc(C(=O)NCCc3ccccc3)c(=O)oc12`, the “activity, negative = inhibition” value was inactive: 12.7%.
With `Cc1cc(C)nc(Sc2c(F)c(F)c(C(F)(F)F)c(F)c2F)n1` the Potency was inconclusive: 7.06 µM [activator, single point].
`Cc1ccc(S(=O)(=O)/N=C2/C=C(C3C(=O)CC(C)(C)CC3=O)C(=O)c3ccccc32)cc1` was tested, and the Potency was inconclusive: 1.77 µM [inhibitor, full curve].
For `Cn1c(/N=C/c2ccccc2[N+](=O)[O-])nc2ccccc21`, the Potency was inconclusive: 39.8 µM [inhibitor, single point].
For `CC1CCN(C(=O)C(C)Cl)CC1` (stereo not drawn), the “activity, negative = inhibition” value was inactive: 7.06%.
With `O=C(NCCNCC(O)COc1ccc(O)cc1)N1CCOCC1` (stereo not drawn) the “activity, negative = inhibition” value was inactive: -14.6%.
In the case of `CC(C)c1ccc(CN2CCSCC2)cc1`, the Potency is reported as inconclusive: 22.4 µM [inhibitor, partial curve].
For `COc1ccc(OCC#CCN2CCC(C)CC2)cc1`, the Potency was inconclusive: 15.8 µM [inhibitor, partial curve].
`O=C(/C=C/c1ccc(Cl)cc1)N(Cc1ccccc1)C1CCS(=O)(=O)C1` (stereo not drawn) was tested, and the “activity, negative = inhibition” value was inactive: 2.42%.
In the case of `N#Cc1c(N)n(CCNC(=O)c2ccccc2)c2nc3ccccc3nc12`, the Potency is reported as inconclusive: 25.1 µM [inhibitor, single point].
`CC(=O)N1CCN(C(=S)NC(=O)c2c(-c3ccccc3Cl)noc2C)CC1` was tested, and the Potency was active: 15.8 µM.
With `O=C(O)c1ccc(C(=O)C(=O)c2ccccc2)cc1` the Potency was inconclusive: 15.8 µM [activator, partial curve].
In the case of `COc1cccc(C(=O)NC2=NCCS2)c1OC`, the “activity, negative = inhibition” value is reported as inactive: -0.797%.
In the case of `CCOC(=O)/C(C#N)=C1/C(=O)N(Cc2ccccc2)c2ccccc21`, the Potency is reported as active: 9.98 µM.
`N#CC1=C(N)N(c2ccccc2)C2=C(C(=O)CCC2)C1c1ccsc1` (stereo not drawn) was tested, and the Potency was inconclusive: 17.7 µM [inhibitor, single point].
In the case of `O=C1S/C(=C\c2ccc(N3CCOCC3)o2)C(=O)N1c1ccccc1`, the Potency is reported as inconclusive: 7.06 µM [inhibitor, partial curve].
With `O=[N+]([O-])c1cc(CSC2=NCCN2)ccc1O` the Potency was inconclusive: 17.7 µM [inhibitor, single point].
With `Cc1cc(C(=O)OCn2nnc3ccccc3c2=O)c(C)n1-c1ccccc1` the “activity, negative = inhibition” value was inactive: 6.4%.
For `CCN1CCN(Cc2cc(OC)c3c(c2)OCO3)CC1`, the Potency was inconclusive: 8.91 µM [inhibitor, partial curve].
For `COc1cccc(C(=O)N=c2sc3c(C)ccc(OC)c3n2C)c1`, the “activity, negative = inhibition” value was inactive: -0.203%.
With `Cc1cc2c(N=O)c(NO)ccc2[nH]1` the Potency was inconclusive: 14.1 µM [inhibitor, partial curve].
In the case of `CC1(OC(=O)c2ccc(Cl)nc2)C(=O)C=C2C=C3CCCN3C=C2C1=O` (stereo not drawn), the Potency is reported as inconclusive: 5 µM [inhibitor, partial curve] and inconclusive: 1.58 µM [inhibitor, single point].
For `COc1ccc(-c2csc(N(CCCN3CCOCC3)C(=O)CCl)n2)cc1`, the Potency was inconclusive: 7.94 µM [inhibitor, partial curve].
With `CC(=O)Nc1cc(OC(C)=O)c2nonc2c1OC(C)=O` the Potency was active: 0.0446 µM.
For `C[C@@H]([C@@H](O)c1ccccc1)N(C)C(=O)C(N)Cc1ccccc1` (stereo partly drawn), the “activity, negative = inhibition” value was inactive: -7.54%.
In the case of `CCOC(=O)c1cc2c(ccn2C)n1CC(=O)N(C)C`, the Potency is reported as inconclusive: 14.1 µM [inhibitor, partial curve].
For `O=c1c2ccccc2sn1-c1cc(S(=O)(=O)N2CCOCC2)ccc1N1CCOCC1`, the Potency was inconclusive: 22.3 µM [inhibitor, partial curve].
With `CCN(Cc1ccccc1)Cc1ccc(OCc2ccccc2)c(OC)c1` the Potency was inconclusive: 28.2 µM [inhibitor, partial curve].
`COc1ccc(C(=O)NC(=S)NNC(=O)c2ccc(NC(=O)C(C)C)cc2)cc1` was tested, and the Potency was inconclusive: 35.4 µM [activator, single point].
In the case of `Cc1cc(C)[n+](C)n1CC(O)Cn1c2ccccc2c2ccccc21` (stereo not drawn), the “activity, negative = inhibition” value is reported as inactive: 4.07%.
For `CCC(=O)c1ccccc1OCCCCn1cncn1`, the Potency was inconclusive: 17.8 µM [inhibitor, partial curve].
`Cc1ccc2nc3nc4ccc[nH]c4cc3c2c1` was tested, and the activity, negative = inhibition was inactive: -6.59% [at 12.9 µM].
`CCOC(=O)C1CCCN(C(=O)c2ccccc2NC(=O)C2=C(C)OCCS2)C1` (stereo not drawn) was tested, and the “activity, negative = inhibition” value was inactive: 4.75%.
`COc1ccc(-n2c(C)cc(C)c(C(C)=O)c2=S)cc1` was tested, and the “activity, negative = inhibition” value was inactive: 0.14%.
`COc1ccccc1CN1CCN(Cc2ccc(Cl)cc2)CC1` was tested, and the Potency was inconclusive: 14.1 µM [inhibitor, partial curve].
`O=C(CSc1n[nH]c(-c2cccnc2)n1)Nc1ccccc1C(F)(F)F` was tested, and the Potency was inconclusive: 22.4 µM [inhibitor, partial curve].
`C=CCn1c(O)c(/C(C)=N/NC(=S)Nc2ccccc2)c(=O)[nH]c1=O` was tested, and the Potency was inconclusive: 17.7 µM [inhibitor, single point].
For `CC(=O)n1cc(/C=N/NC(N)=S)c2ccccc21`, the Potency was inconclusive: 17.7 µM [inhibitor, single point].
In the case of `CC=CC1=C(C(=O)O)N2C(=O)[C@H](NC(=O)[C@H](N)c3ccc(O)cc3)[C@@H]2SC1`, the Potency is reported as inconclusive: 19.9 µM [inhibitor, partial curve].
For `Cc1ccc(-c2nn[nH]n2)cc1`, the Potency was inconclusive: 35.5 µM [inhibitor, single point].
For `N#Cc1c(/N=C/c2ccc(-c3ccccc3C(=O)O)o2)sc2c1CCCC2`, the “activity, negative = inhibition” value was inactive: 13.9%.
In the case of `N/C(=N\OC(=O)Cc1ccc([N+](=O)[O-])cc1)c1cccc(Br)c1`, the “activity, negative = inhibition” value is reported as inactive: -13.5%.
With `CN(CC(=O)N1CCCCCC1)S(=O)(=O)c1ccc(F)cc1` the “activity, negative = inhibition” value was inactive: 0.0415%.
With `COc1ccc2[nH]c3c(C)c4ccncc4c(C)c3c2c1` the “activity, negative = inhibition” value was inactive: -14.2%.
For `C/C(=N\Nc1nccnc1Cl)c1ccc(Cl)c(Cl)c1`, the Potency was inconclusive: 15.8 µM [inhibitor, partial curve].
For `CCOC(=O)c1sc(=NC(=O)c2cccc(C)c2)n(C)c1C`, the “activity, negative = inhibition” value was inactive: 3.35%.
In the case of `Cc1c(Cl)cnc(NC(=O)COC(=O)c2ccc([N+](=O)[O-])s2)c1Cl`, the Potency is reported as inconclusive: 22.3 µM [inhibitor, partial curve].
With `Cc1nc2ccccn2c1C(=O)N/N=C/c1ccc([N+](=O)[O-])o1` the Potency was inconclusive: 15.8 µM [inhibitor, partial curve].
With `CCSc1cc(C2C(C#N)=C(N)OC(C)=C2C(=O)OC)c(C)o1` (stereo not drawn) the Potency was inconclusive: 15.8 µM [inhibitor, single point].
